Assay results published in article doi:10.1101/2024.08.07.607021.
These are yes or no findings as the source states them, for the method shown. In cells and extracts the contact can be indirect. Some results given as binding are weak or reduced against the parent protein; the word gives no strength.

Chains of the proteins cited; added tags and fusions are not shown. Lines headed by an entry give the natural chain unless they say otherwise; changes in a name come on top.
UniProt Q01628: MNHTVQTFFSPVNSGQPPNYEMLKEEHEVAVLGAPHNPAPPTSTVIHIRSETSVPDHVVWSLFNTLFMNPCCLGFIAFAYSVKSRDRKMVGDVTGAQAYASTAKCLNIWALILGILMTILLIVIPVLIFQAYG

Target: T1, endogenous STX8 (HEK293T) (human (endogenous in HEK293T)) (UniProt Q9UNK0)
T1 sequence: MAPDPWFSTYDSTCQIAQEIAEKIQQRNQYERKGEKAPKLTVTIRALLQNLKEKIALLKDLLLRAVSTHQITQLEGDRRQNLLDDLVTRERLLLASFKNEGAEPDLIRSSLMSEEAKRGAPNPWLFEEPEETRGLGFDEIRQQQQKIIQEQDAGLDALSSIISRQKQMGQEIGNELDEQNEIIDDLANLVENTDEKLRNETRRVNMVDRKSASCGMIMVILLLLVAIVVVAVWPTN
Assay: co-IP; HEK293T stably expressing Empty Vector, IFITM3 WT-FLAG or IFITM3 G95L-FLAG, inoculated with IAV or medium for 18 hours; endogenous STX8 immunoprecipitated with anti-STX8; immunoblot with anti-STX8, anti-FLAG, anti-VAMP8, anti-VAMP7

Row | Substance | binding
1 | IFITM3-FLAG G95L (from UniProt Q01628 1-133) | binds
2 | IFITM3-FLAG WT (interferon-induced transmembrane protein 3) (from UniProt Q01628 1-133) | binds
